Hit rate of the full screen: of about 43,000 compounds, about 200 (0.47%) were called active. Roughly 12% stayed inconclusive and do not appear here. Calls follow the shape of the dose curve; as a rule, active = well fitted cell-killing curve with a large enough effect; inconclusive = small, poorly fitted or top-dose-only effect, or effect the other way; inactive = flat fitted curve, though single readings scatter. The list shows a part of the results.
Assay: Cell viability qHTS assay in S16 Pmp22-F2sN cells; also: nearly all actives have a fitted effect of over 65% in size
Conditions: S16 Pmp22-F2sN Schwann cells viability, CellTiter-Glo, 24 h; series mostly up to 57.5 µM; activity change, negative = cytotoxicity: at the top concentration
Procedure, shortened: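 Used to flag compounds lowering reporter output through toxicity, this quantitative HTS measures ATP-based CellTiter-Glo luminescence in S16 Pmp22-F2sN Schwann cells after 24 h compound exposure at 37C.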
% is scaled to controls: 0 for no effect and ±100 for the full control effect.

| SMILES | activity change, negative = cytotoxicity |
| --- | --- |
| COc1ccc(CNS(=O)(=O)c2ccc(C(=O)N(C)C)s2)cc1 | inactive: -24.5% |
| Cc1ccc(CNc2nc(-c3ccco3)nn2C(=O)c2ccccc2[N+](=O)[O-])cc1 | inactive: -0.409% |
| CCOc1ccc(NC(=O)CSc2ncc(S(=O)(=O)c3ccc(F)c(C)c3)c(=O)[nH]2)cc1 | inactive: -4.44% |
| Cc1ccc2c(=O)c(C(=O)c3ccccc3)cn(CC(=O)NCc3ccccc3)c2n1 | inactive: -19.8% |
| COc1ccc(NC(=O)Cn2c(=O)n(CCCC(=O)NCc3ccccc3Cl)c(=O)c3ccccc32)c(OC)c1 | inactive: 11.9% |
| CCc1ccc(C(c2ccccc2)c2c(C)[nH]c3ccccc23)s1 (configuration not stated) | inactive: 15.3% |
| Cc1cc(C)c(NC(=O)CSc2nc3ccccc3c3nc(-c4ccccc4)nn23)c(C)c1 | inactive: -1.5% |
| Cc1cccc(CNC(=O)c2ccc3c(c2)N(C)CCS3)c1 | inactive: -15.8% |
| COc1ccc(CNCc2c(C(=O)O)c(C)n(Cc3ccccc3C)c2C)cc1OC | inactive: 1.17% |
| Cc1ccc(C)c(N2CCN(S(=O)(=O)c3ccc4[nH]c5c(c4c3)CCCC5)CC2)c1 | inactive: -28.4% |
| COc1ccc(N2CCN(c3ncccc3-c3nc(-c4ccccc4C)no3)CC2)cc1 | inactive: 16.6% |
| Cc1ccccc1CNC(=O)Cn1nc(C)c2nn(-c3ccc(Cl)cc3)c(C)c2c1=O | inactive: 7.38% |
| CCOC(=O)c1sc2ccccc2c1S(=O)(=O)Nc1cc(OC)ccc1OC | inactive: 1.9% |
| CCC(C(=O)NC1CCCCC1)n1c(SCc2ccccc2F)nc2ccncc21 (configuration not stated) | inactive: -17.1% |
| COCCNC(=O)CN1C(=O)COc2ccc(S(=O)(=O)N3CCCCCC3)cc21 | inactive: 12% |
| CCOC(=O)CSc1nc2sc3c(c2c(=O)n1Cc1ccccc1)CC(C(C)C)OC3 (configuration not stated) | inactive: 16% |
| CCC(C)NC(=O)CCCn1c(=O)c2cccn2c2ccccc21 (configuration not stated) | inactive: 1.06% |
| CCN(Cc1ccccc1)c1nc2c(S(=O)(=O)c3ccccc3)nnn2c2ccc(Cl)cc12 | inactive: 8.46% |
| CCc1ccc(NC(=O)CSc2ccc(-c3sc(-c4ccccc4)nc3C)nn2)cc1 | inactive: 15.6% |
| Cc1ccccc1C(=O)Nc1cccc(NC(=O)c2ccc(C(C)(C)C)cc2)c1 | inactive: -21.6% |
| Cc1ccccc1CNC(=O)CN1C(=O)CCCc2ccccc21 | inactive: -1.1% |
| Cc1ccc(C2CC(=O)N(Cc3ccc(F)cc3)c3c2c(C)nn3-c2nc(C)cc(C)n2)cc1 (configuration not stated) | inactive: -12.7% |
| COc1ccc(CCNC(=O)CCCn2c(=O)c3ccccc3n(CC(=O)Nc3ccccc3C)c2=O)cc1OC | inactive: 15.9% |
| COc1ccc(Cn2c(SCC(=O)N3CCN(c4ccc(F)cc4)CC3)nc3ccccc32)cc1 | inactive: 9.36% |
| O=C(CN1CCN(Cc2ccc(F)cc2)C1=O)NCc1ccc(F)cc1 | inactive: -5.27% |

| SMILES | activity change, negative = cytotoxicity |
| --- | --- |
| COCCNC(=O)Cn1c(-c2cccs2)cc2cc(Cl)ccc21 | inactive: -16.5% |
| CCc1ccccc1NC(=O)CN(c1ccccc1OC)S(=O)(=O)c1ccc(C)cc1 | inactive: 10.7% |
| Cc1ccsc1CN(C(=O)COc1ccccc1Cl)C1CCS(=O)(=O)C1 (configuration not stated) | inactive: 1.15% |
| Cc1sc(C2C(C#N)=C(N)N(c3ccc(Cl)cc3)C3=C2C(=O)CCC3)cc1CN1CCOCC1 (configuration not stated) | inactive: -14.6% |
| O=C(COc1ccccc1)N(Cc1cccnc1)c1nc2c(F)cc(F)cc2s1 | inactive: 1.1% |
| CC1CCN(S(=O)(=O)c2ccc3c(c2)N(CC(=O)NCCCOC(C)C)C(=O)CO3)CC1 | inactive: 2.18% |
| COc1cc(C(=O)NCCc2sc(-c3ccc(C)cc3)nc2C)cc(OC)c1OC | inactive: 2.61% |
| CC1CCN(C(=O)Cn2cc(SCC(=O)NCc3ccc(F)cc3)c3ccccc32)CC1 | inactive: -26.2% |
| Cc1nnc(N2C(=O)c3oc4ccccc4c(=O)c3C2c2cccc(OCCC(C)C)c2)s1 (configuration not stated) | inactive: 1.75% |
| O=[N+]([O-])c1cc(-c2nc(-c3ccccc3)no2)ccc1NCc1ccco1 | inactive: 17.6% |
| Cc1ccc(C(=O)c2oc3ccccc3c2NC(=O)COc2ccccc2C)cc1 | inactive: -0.795% |
| Cc1ccc(-c2noc(-c3ccc(N4CCOCC4)c([N+](=O)[O-])c3)n2)cc1 | inactive: 12.4% |
| Cn1c(=O)c2cc(C(=O)NCCCN3CCN(c4ccc(F)cc4)CC3)sc2c2ccccc21 | inactive: 1.9% |
| COCCCNC(=O)c1c(NC(=O)Cc2coc3cc(C)ccc23)sc2c1CCCC2 | inactive: -0.994% |
| COc1ccc(C(=O)/C=C/c2cn(CC(O)CN3CCCCCC3)c3ccccc23)cc1OC (configuration not stated) | inactive: -19.8% |
| COc1ccc(NS(=O)(=O)c2cnc(N)nc2)cc1Cl | inactive: -0.892% |
| COc1ccc(-c2nc3ccccc3o2)cc1NC(=O)COc1cc(C)cc(C)c1 | inactive: 5.58% |
| Cc1oc2c(c1C(=O)Nc1ccc(OC(F)(F)F)cc1)C1=NCCN1C=N2 | inactive: -0.555% |
| O=C(COc1ccc2oc3c(c2c1)CCCC3)Nc1cccc(Br)c1 | inactive: -0.566% |
| Cc1cc(=O)[nH]c2nnc(SCC(N)=O)n12 | inactive: -1.92% |
| CC(=O)c1ccc(Oc2ncnc3c2oc2ccccc23)cc1 | inactive: -0.238% |
| COc1ccc(NC(=O)CCS(=O)(=O)c2cc3c4c(c2)CCN4C(=O)CC3)c(OC)c1 | inactive: 3.4% |
| Cn1cc(S(=O)(=O)N2CCCCCC2)cc1C(=O)Nc1ccc(Cl)c(C(F)(F)F)c1 | inactive: 2.92% |
| COc1ccc(NS(=O)(=O)c2cc3c(cc2C)N(C(C)=O)CCO3)cc1 | inactive: -2.31% |
| CC1=Nc2cc(C(=O)N3CCC(C)CC3)ccc2Sc2ccc(Cl)cc21 | inactive: 0.599% |

| SMILES | activity change, negative = cytotoxicity |
| --- | --- |
| Cc1cc2c(cc1NS(=O)(=O)c1cccc(C#N)c1)n(C)c(=O)c(=O)n2C | inactive: -4.32% |
| CCc1cccc(C)c1NC(=O)Cn1nnc(-c2nc(-c3ccccc3F)no2)c1N | inactive: 7.11% |
| CCc1ccc(NC(=O)C2CCCN2S(=O)(=O)c2ccc3c(c2)CCCC(=O)N3)cc1 (configuration not stated) | inactive: -23.9% |
| COc1ccccc1NC(=O)c1cnc(SCC(=O)N2CCOCC2)n(C)c1=O | inactive: 18.5% |
| COc1ccc2c(c1)c1c(c(=O)n(Cc3ccccc3)c(=O)n1Cc1cccc(Cl)c1)n2C | inactive: -3.69% |
| Cc1cc(C)c2oc(-c3ccc(Cl)c(NC(=O)c4cccs4)c3)nc2c1 | inactive: 9.69% |
| CCn1cc(C(=O)NCCCOC)c(=O)c2cc(S(=O)(=O)N3CCc4ccccc4C3)ccc21 | inactive: -8.5% |
| COc1ccc(-c2n[nH]c3c2cnc2ccc(F)cc23)cc1 | inactive: 4.97% |
| CCCSc1nc(-c2ccccc2)[nH]c1S(=O)(=O)c1ccc(C)cc1 | inactive: -17.8% |
| COc1ccc(-c2cc3ccc(O)c(CN4CCCC4)c3oc2=O)cc1 | inactive: 4.96% |
| Cc1ccc(-c2c(C(=O)NCCc3ccccc3)oc(=O)c3ccccc23)cc1 | inactive: -3.72% |
| Cc1cc(C)cc(NC(=O)C2CCN(S(=O)(=O)c3cn(C)cn3)CC2)c1 | inactive: -0.313% |
| O=c1oc2ccc3ccccc3c2cc1-c1nnc(Nc2ccccc2F)s1 | inactive: 3.01% |
| O=C(NCc1ccccc1)c1cccn1-c1nnc(N2CCCC2)s1 | inactive: 4.31% |
| CC(=O)N1c2ccccc2C(C)(c2ccc(C)cc2)CC1(C)C (configuration not stated) | inactive: 3.06% |
| CN1C(=O)c2ccccc2Sc2ccc(NC(=O)N3CCN(c4ccccc4)CC3)cc21 | inactive: -22.4% |
| COc1ccc(-n2nnnc2C2CCN(S(=O)(=O)c3ccc(C)cc3)CC2)cc1 | inactive: -2.36% |
| COc1cc2c(cc1OC)C(COc1ccc3c(C)cc(=O)oc3c1)N(C(=O)c1ccccc1C)CC2 (configuration not stated) | inactive: 0.993% |
| COCCn1c(=O)[nH]c2cc(C(=O)N3CCN(c4ccccc4)CC3)ccc2c1=O | inactive: 2.56% |
| NC(=O)CSc1ncc2c(n1)-c1ccccc1N(Cc1ccc(F)cc1)S2(=O)=O | inactive: 10.7% |
| CCOc1ccc(C(=O)Nc2ccc3nc(SCC(=O)N4CCc5ccccc54)sc3c2)cc1 | inactive: 11.7% |
| CC1=C(c2ccc(C)cc2)S(=O)(=O)N(Cc2ccc(C(=O)Nc3ccc(C)c(F)c3)cc2)C1=O | inactive: -2.28% |
| Cc1ccc(-c2ccc(CCC(=O)O)n2-c2ccc(C(N)=O)cc2)cc1 | inactive: 0.286% |
| CC(=O)N1CCc2cc(S(=O)(=O)NC(Cc3ccccc3)C(=O)Nc3cc(C)ccc3C)ccc21 (configuration not stated) | inactive: -0.788% |
| CCOc1ccc(CNC(=O)c2nn(-c3ccc(OC)cc3)c(=O)c3c2c2ccccc2n3C)cc1 | inactive: 3.98% |

| SMILES | activity change, negative = cytotoxicity |
| --- | --- |
| O=C(NCC(c1cccs1)S(=O)(=O)c1cccs1)c1cccc(F)c1 (configuration not stated) | inactive: 18.4% |
| COc1ccc(-c2nc3ccccc3n3c(-c4ccccc4)c4c(=O)n(C)c(=O)n(C)c4c23)cc1OC | inactive: 2.2% |
| O=c1oc2c3c(ccc2c2ccccc12)OCN(Cc1ccc(Cl)cc1)C3 | inactive: 1.56% |
| c1cnc(N2CCN(c3ncc4c(n3)CCNC4)CC2)nc1 | inactive: 9.26% |
| COc1ccc(OC)c(-n2nnc(-c3nc(-c4cc(OC)c(OC)c(OC)c4)no3)c2C)c1 | inactive: 2.05% |
| Cc1ccc(Cc2cn3cc(-c4ccc(F)cc4)nc3s2)cc1 | inactive: 11% |
| COc1ccc(-c2c(C)c3ccc(O)c(CN4CCCC4)c3oc2=O)cc1OC | inactive: -0.898% |
| Cc1cc(C)n(-c2nc(C)c(C)c(=O)n2CC(=O)Nc2ccc(OC(F)(F)F)cc2)n1 | inactive: -11.6% |
| Cc1cccc(NC(=O)c2cc(S(=O)(=O)N3CCCCCC3)cn2C)c1C | inactive: 7.17% |
| Cc1ccc(NC(=O)Cn2cc(C(=O)C3CC3)c3ccccc32)cc1C | inactive: 1.55% |
| Cc1ccccc1CSc1ccc(-c2cccs2)nn1 | inactive: -4.06% |
| COc1ccc(OCc2nc(-c3ccc(-n4cccc4)cc3)no2)cc1 | inactive: 0.245% |
| CCC(=O)N1CCc2cc(CNS(=O)(=O)c3cccs3)ccc21 | inactive: -9.04% |
| CCCCOc1ccc(CNC(=O)c2ccc3c(c2)N(C)C(=O)C2CCCCN32)cc1 (configuration not stated) | inactive: -2.26% |
| COc1ccc(CNC(=O)CCc2nc(-c3ccc(OC)cc3)no2)cc1 | inactive: -2.42% |
| Cc1cc(C)c2c(n1)sc1c(=O)n(-c3ccccc3C(F)(F)F)nnc12 | inactive: -0.667% |
| CCSc1nc2c([nH]c3ccccc32)c(=O)n1-c1ccc(F)cc1 | inactive: -1.36% |
| Cc1ccc(OCCSc2nc3ccc(NC(=O)c4ccc(F)cc4)cc3s2)cc1 | inactive: 0.454% |
| CCOC(=O)C(CC)Sc1c(CC)cnc2c1c(=O)n(C)c(=O)n2C (configuration not stated) | inactive: 8.83% |
| CC(=O)N1CCc2c(sc3c2c(=O)n(Cc2ccccc2)c(=O)n3Cc2cc(C)ccc2C)C1 | inactive: 1.08% |
| COc1ccc2c(c1)Cc1sc(NC(=O)c3cccc(Br)c3)nc1-2 | inactive: 11.4% |
| CC1CN(C(=O)N2CCC(C(=O)NCCCc3ccccc3)CC2)c2ccccc2O1 (configuration not stated) | inactive: 4.91% |

Source: PubChem BioAssay AID1508642 (National Center for Advancing Translational Sciences (NCATS), 2021)
